# The campaign covered roughly 310,000 compounds. About 11,000 (3.5%) were called active. Inconclusive results, whose numbers are uncertain, are shown with a selection of clear calls. Calls come from the whole dose curve; as a rule, active = well fitted inhibition curve with a large enough effect; inconclusive = small, poorly fitted or top-dose-only effect, or effect the other way; inactive = flat fitted curve, though single readings scatter. No potency is given beside an inconclusive call; the fits are too rough.
# Assay: VP16 counterscreen qHTS for inhibitors of ROR gamma transcriptional activity;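 note: Gal4-VP16 expression switched on by copper sulfate through the metallothionein promoter; nearly all actives have a fitted effect of over 50% in size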
# Conditions: Drosophila S2 Gal4-VP16 UAS-luciferase, luminescence, 20 h; activity, negative = inhibition: at 53.6 µM (top of the series)
# % is set by controls: 0 for no effect and ±100 for the full control effect; potency is the fitted concentration of half-maximal effect; tags give direction and shape of the fitted curve.
Compound,Potency,"activity, negative = inhibition"
COC(=O)c1cc(S(=O)(=O)NCC2CCN(Cc3ccc(Cl)cc3)CC2)c[nH]1,"inconclusive [inhibitor, single point]",–
Cc1ccc(NC(=O)c2c(Cl)nc3ccccn23)cc1,"inconclusive [activator, single point]",–
Fc1ccc(CNC(=S)Nc2cccc(C(F)(F)F)c2)cc1,"inconclusive [activator, single point]",–
COc1cc(-c2noc(C)c2C#CCO)cc(OC)c1OC,–,inactive: 2.86%
CCOc1cc(S(=O)(=O)NCc2ccncc2)c(C)cc1C,"inconclusive [inhibitor, single point]",–
CCc1nc(NCc2ccccn2)c2oc3ccccc3c2n1,"inconclusive [inhibitor, single point]",–
Cc1cccnc1CCNC(=O)c1ccc(OC2CCN(Cc3ccccn3)CC2)cc1,"inconclusive [inhibitor, single point]",–
COc1ccc(-c2nnc(NC(=O)CSc3ccccc3)s2)cc1OC,active: 22.4 µM,–
CC(=O)/C(=N/Nc1ccccc1)Sc1nnc(CCc2ccccc2)n1-c1ccccc1,–,inactive: -3.2%
CCOC(=O)CN1C(=O)/C(=C/c2cccc(Br)c2)Oc2ccccc21,–,inactive: 2.51%
Cc1cc(Cl)ccc1NNC(N)=S,"inconclusive [inhibitor, single point]",–
CCOc1ccc(CNC(=S)NCc2ccc(OCC)cc2)cc1,"inconclusive [inhibitor, single point]",–
S=C(NCc1ccccn1)Nc1ccccc1,"inconclusive [inhibitor, single point]",–
O=C1CCCc2ccccc2N1Cc1ccc(Cl)cc1Cl,–,inactive: -16.3%
CCOC(=O)C(=CNNc1cccc(Cl)c1)C(=O)OCC,"inconclusive [inhibitor, single point]",–
CC(C)(C)C(=O)Nc1ccc(-c2nc3ccccc3c(=O)o2)cc1,"inconclusive [inhibitor, partial curve]",–
Cc1cccc(N2CCN(C(=O)CSCc3c(C)noc3C)CC2)c1C,active: 10 µM,–
O=C(N/N=C/c1ccc(O)c(O)c1)C1c2ccccc2Oc2ccccc21,"inconclusive [inhibitor, partial curve]",–
Cc1ccc(C2=NNC(C(O)C(O)C(O)CO)S2)cc1 (centres undefined),"inconclusive [inhibitor, single point]",–
CCCC(=O)NC(c1ccc(Cl)cc1)c1ccc2cccnc2c1O (centres undefined),active: 2.82 µM,–
Cc1ccc(Cl)cc1Nc1nc(-c2sc(NC(=O)C(C)(C)C)nc2C)cs1,active: 11.2 µM,–
Cc1cccc(Nc2nc(-c3ccc(F)c(C)c3)cs2)n1,"inconclusive [inhibitor, partial curve, poor fit]",–
C=CCNC(=S)N/N=C/c1ccc(N(CC)Cc2ccccc2)cc1,active: 0.708 µM,–
CCOC(=O)c1c(NC(=O)Cn2c(C)nc3ccccc32)sc2c1CCC2,"inconclusive [inhibitor, single point]",–
Cc1ccc(CNc2ccc3c(c2)ncn3C)cc1,–,inactive: 5.9%

Compound,Potency,"activity, negative = inhibition"
CCCc1ccc(-c2ccc(/C=C/C(=O)O)cc2)nc1,"inconclusive [inhibitor, partial curve, poor fit]",–
Cc1cccc(NC(=S)NC(=O)CCc2ccccc2)c1C,"inconclusive [inhibitor, single point]",–
Cc1[nH]c2ccccc2c1/C=C/c1nc2ccccc2c(=O)n1-c1cccc([N+](=O)[O-])c1,"inconclusive [inhibitor, single point]",–
COc1ccc(/C=C/C(=O)c2cc(F)ccc2OC(=O)c2ccc(OC)c(OC)c2)cc1OC,"inconclusive [inhibitor, full curve]",–
Brc1ccc(-n2cc(-c3ccccc3)c3c(NN4CCOCC4)ncnc32)cc1,"inconclusive [inhibitor, partial curve]",–
Cc1csc(NC(=O)CSc2nnc(-c3cccnc3)o2)n1,–,inactive: -3.93%
CCN1CCc2c(OCC(=O)Nc3cccc(C)c3C)cccc2C1=O,–,inactive: 2.29%
Cc1oc(C(C)(C)C)cc1C(=O)Nc1cccc(C(=O)O)c1,"inconclusive [inhibitor, single point]",–
CC(=O)c1c(N=CN(C)C)nc(C)nc1-c1ccccc1,–,inactive: 0.673%
CCOC(=O)N1CCC(NC(=S)Nc2ccc3nc(N4CCN(C)CC4)cc(C)c3c2)CC1,"inconclusive [inhibitor, single point]",–
COc1ccc(/C=C\C(=O)Nc2ccccc2C(=O)O)cc1OC,active: 1.12 µM,–
C[C@H](NC(=O)c1[nH]cnc1C(=O)Nc1ccc(Cl)cc1)C(=O)OC(C)(C)C,active: 1.41 µM,–
O=C(Oc1ccccc1)N1CCC2(CC1)CCN(c1ncccn1)CC2,–,inactive: -7.45%
CC(=O)n1cc(/C=N/NC(=O)c2sc(C)nc2C)c2ccccc21,"inconclusive [inhibitor, single point]",–
Cc1ccccc1OCCNC(=O)c1ccccc1Sc1ccccc1C#N,–,inactive: 7.64%
O=[N+]([O-])c1c(Nc2ccccc2O)cc(Cl)c2nonc12,active: 2.82 µM,–
Cc1ccc(C(C)C)c2oc(=O)cc(-c3ccc(-c4ccc(C(F)(F)F)cc4)cc3)c12,–,inactive: 0.34%
CC(C)(C)Nc1c(-c2cccs2)nc2ccccn12,"inconclusive [inhibitor, single point]",–
CC(C)CC(c1nnnn1C1CCCC1)N1CCN(C(=O)c2ccco2)CC1 (centres undefined),–,inactive: -2.3%
COc1ccc(Cc2nc3ccc(C(=O)NCCn4ccnc4C)cc3o2)cc1OC,–,inactive: -5.35%
O=C(N/N=C/c1ccc(Br)s1)c1ccco1,active: 10 µM,–
Cc1ccc(Nc2nc(N)nc(CSc3nnnn3-c3ccccc3)n2)cc1,"inconclusive [inhibitor, single point]",–
Clc1ccc2ncnc(NCc3ccc4c(c3)OCO4)c2c1,active: 7.94 µM,–
Cc1ccc(Nc2nc(-c3c(C)nc4ccccn34)cs2)cc1,"inconclusive [inhibitor, single point]",–
